Test results reported in patent publication US20180153968A1 (CSL BEHRING LENGNAU, published 2018).

Legend:
[1] = biological target: T1, rVIII-SingleChain (recombinant single chain Factor VIII) (Homo sapiens (Human), UniProt P00451 20-2351); test: SPR (Biacore T200), reference: D′D3-FP monomer
T1 construct: Molar mass used for the fit: 170 kDa; also called rVIII-SC; FVIII
T1 sequence: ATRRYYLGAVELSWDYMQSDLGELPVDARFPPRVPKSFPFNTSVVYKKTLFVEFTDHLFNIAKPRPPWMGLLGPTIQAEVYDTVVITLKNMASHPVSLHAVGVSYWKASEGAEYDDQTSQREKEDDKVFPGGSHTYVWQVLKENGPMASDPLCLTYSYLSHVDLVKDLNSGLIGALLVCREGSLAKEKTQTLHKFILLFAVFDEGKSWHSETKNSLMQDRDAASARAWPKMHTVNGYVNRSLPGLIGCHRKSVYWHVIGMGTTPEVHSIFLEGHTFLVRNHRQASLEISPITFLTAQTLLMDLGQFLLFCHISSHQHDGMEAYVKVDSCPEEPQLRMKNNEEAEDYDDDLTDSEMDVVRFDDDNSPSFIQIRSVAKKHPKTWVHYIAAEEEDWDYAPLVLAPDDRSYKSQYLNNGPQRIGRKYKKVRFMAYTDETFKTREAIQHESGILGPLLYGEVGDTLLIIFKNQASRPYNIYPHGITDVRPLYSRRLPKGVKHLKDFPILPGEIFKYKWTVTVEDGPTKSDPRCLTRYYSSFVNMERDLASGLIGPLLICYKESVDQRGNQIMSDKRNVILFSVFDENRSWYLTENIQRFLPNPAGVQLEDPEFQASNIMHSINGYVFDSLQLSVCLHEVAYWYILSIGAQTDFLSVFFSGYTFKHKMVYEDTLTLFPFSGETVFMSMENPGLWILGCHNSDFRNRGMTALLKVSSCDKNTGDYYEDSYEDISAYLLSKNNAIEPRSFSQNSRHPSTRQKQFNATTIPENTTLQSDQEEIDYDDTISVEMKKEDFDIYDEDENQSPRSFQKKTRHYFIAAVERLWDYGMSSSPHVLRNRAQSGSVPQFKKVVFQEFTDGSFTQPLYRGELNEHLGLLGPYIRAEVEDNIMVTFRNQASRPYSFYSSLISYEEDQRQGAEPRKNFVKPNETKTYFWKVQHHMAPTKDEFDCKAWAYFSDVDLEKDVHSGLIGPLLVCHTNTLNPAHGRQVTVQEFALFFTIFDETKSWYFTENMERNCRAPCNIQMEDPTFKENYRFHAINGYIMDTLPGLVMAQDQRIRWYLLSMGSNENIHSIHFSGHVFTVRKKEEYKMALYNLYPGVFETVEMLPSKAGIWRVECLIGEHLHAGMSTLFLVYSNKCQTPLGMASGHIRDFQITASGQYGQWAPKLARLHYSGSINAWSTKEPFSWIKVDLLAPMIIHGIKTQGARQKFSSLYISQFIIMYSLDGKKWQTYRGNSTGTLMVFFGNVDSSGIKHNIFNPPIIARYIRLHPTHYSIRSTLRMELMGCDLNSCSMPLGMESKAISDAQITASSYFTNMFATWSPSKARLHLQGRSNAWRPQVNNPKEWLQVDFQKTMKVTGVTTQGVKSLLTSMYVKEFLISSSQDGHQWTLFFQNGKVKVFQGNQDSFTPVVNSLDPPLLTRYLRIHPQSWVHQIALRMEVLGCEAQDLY
Description: (§1) Dimeric and monomeric D′D3-FP proteins, respectively, were immobilized to the covalently coupled anti-albumin antibody by a flow of the D′D3-FP proteins (5 μg/mL) over the chip for 3 min (flow rate of 10 μL/min).
(§2) To create binding curves for FVIII, each D′D3-FP protein preparation was diluted in running buffer (HBS-P+: 0.1 M HEPES, 1.5 M NaCl and 0.5% v/v Surfactant P20, pH 7.4; product code BR100671, GE Healthcare) to concentrations of 0.25 nM, 0.5 nM, 1 nM, 3 nM and 4 nM. By performing a single cycle kinetic, samples with ascending concentrations of each dilution were flown over the chip for 2 min (flow rate 30 μL/min.), followed by a dissociation time of 10 min. with running buffer HBS-P+. All measurements were performed twice. The temperature for the measuring procedure was adjusted to +25° C.
(§3) Binding parameters were calculated using BiaEvaluation Software. The curve fitting methods were based on Langmuir equations. The input data for calculations were the molar mass of the analyte FVIII (rVIII-SingleChain) of 170 kDa, other parameters like max. RU and slopes were automatically extracted out of the fitted association and dissociation curves. The outputs of BiaEvaluation Software are the association rate constants and the dissociation rate constants, from which the affinity constants were calculated.

[2] = biological target: T1, rVIII-SingleChain (recombinant single …); test: SPR (Biacore T200), D′D3-FP captured by anti-albumin antibody, rVIII-SingleChain as analyte, single cycle kinetics, 25 C
Description: as §1, §2, §3

[3] = biological target: T1, rVIII-SingleChain (recombinant single …); test: SPR (Biacore T200), D′D3-FP captured by anti-albumin antibody, rVIII-SingleChain as analyte, single cycle kinetics, 25 C; D′D3-FP dimer preparation; rVIII-SingleChain as analyte
Description: as §1, §2, §3

[4] = biological target: T1, rVIII-SingleChain (recombinant single …); test: SPR (Biacore T200), D′D3-FP captured by anti-albumin antibody, rVIII-SingleChain as analyte, single cycle kinetics, 25 C; D′D3-FP monomer preparation; rVIII-SingleChain as analyte
Description: as §1, §2, §3

B1: D′D3-FP dimer (D′D3 albumin fusion protein, dimeric) (other)
chain: SLSCRPPMVKLVCPADNLRAEGLECTKTCQNYDLECMSMGCVSGCLCPPGMVRHENRCVALERCPCFHQGKEYAPGETVKIGCNTCVCRDRKWNCTDHVCDATCSTIGMAHYLTFDGLKYLFPGECQYVLVQDYCGSNPGTFRILVGNKGCSHPSVKCKKRVTILVEGGEIELFDGEVNVKRPMKDETHFEVVESGRYIILLLGKALSVVWDRHLSISVVLKQTYQEKVCGLCGNFDGIQNNDLTSSNLQVEEDPVDFGNSWKVSSQCADTRKVPLDSSPATCHNNIMKQTMVDSSCRILTSDVFQDCNKLVDPEPYLDVCIYDTCSCESIGDCACFCDTIAAYAHVCAQHGKVVTWRTATLCPQSCEERNLRENGYECEWRYNSCAPACQVTCQHPEPLACPVQCVEGCHAHCPPGKILDELLQTCVDPEDCPVCEVAGRRFASGKKVTLNPSDPEHCQICHCDVVNLTCEACQEPGGSSGGSGGSGGSGGSGGSGGSGGSGGSGGSGS[about 600 residues cut from this listing]
notes: Covalently linked (disulfide) dimer of the mature D′D3-FP chain, made in CHO cells and separated from the monomer by size exclusion chromatography; N-glycosylated; also called dimeric D′D3-FP; VWF fragment dimer
[1]
  fold slower dissociation rate constant than to the monomer: 3 fold
[2]
  koff: 0.00137 s⁻¹
  kon: 2.33e+07 M⁻¹ s⁻¹
[3]
  Kd: 0.059 nM

B2: D′D3-FP monomer (D′D3 albumin fusion protein, monomeric) (other)
chain: SLSCRPPMVKLVCPADNLRAEGLECTKTCQNYDLECMSMGCVSGCLCPPGMVRHENRCVALERCPCFHQGKEYAPGETVKIGCNTCVCRDRKWNCTDHVCDATCSTIGMAHYLTFDGLKYLFPGECQYVLVQDYCGSNPGTFRILVGNKGCSHPSVKCKKRVTILVEGGEIELFDGEVNVKRPMKDETHFEVVESGRYIILLLGKALSVVWDRHLSISVVLKQTYQEKVCGLCGNFDGIQNNDLTSSNLQVEEDPVDFGNSWKVSSQCADTRKVPLDSSPATCHNNIMKQTMVDSSCRILTSDVFQDCNKLVDPEPYLDVCIYDTCSCESIGDCACFCDTIAAYAHVCAQHGKVVTWRTATLCPQSCEERNLRENGYECEWRYNSCAPACQVTCQHPEPLACPVQCVEGCHAHCPPGKILDELLQTCVDPEDCPVCEVAGRRFASGKKVTLNPSDPEHCQICHCDVVNLTCEACQEPGGSSGGSGGSGGSGGSGGSGGSGGSGGSGGSGS[about 600 residues cut from this listing]
notes: Monomer fraction of D′D3-FP from size exclusion chromatography; also called monomeric D′D3-FP; VWF fragment monomer
[2]
  koff: 0.00396 s⁻¹
  kon: 4.41e+07 M⁻¹ s⁻¹
[4]
  Kd: 0.0899 nM
